Laboratory results as given in PMC4336329 (PLoS ONE, 2015).
Hit rate of the full screen: of about 310,000 compounds, about 2,200 (0.71%) showed an effect of 50% or more. Effects have a minus sign here. This is one part of the list.

Target: human ether-à-go-go-related gene (hERG) potassium channel (human, UniProt Q12809)
Test: primary screen, population patch clamp on CHO cells stably expressing hERG

Chain of human ether-à-go-go-related gene (hERG) potassium channel (Q12809 whole entry, looked up): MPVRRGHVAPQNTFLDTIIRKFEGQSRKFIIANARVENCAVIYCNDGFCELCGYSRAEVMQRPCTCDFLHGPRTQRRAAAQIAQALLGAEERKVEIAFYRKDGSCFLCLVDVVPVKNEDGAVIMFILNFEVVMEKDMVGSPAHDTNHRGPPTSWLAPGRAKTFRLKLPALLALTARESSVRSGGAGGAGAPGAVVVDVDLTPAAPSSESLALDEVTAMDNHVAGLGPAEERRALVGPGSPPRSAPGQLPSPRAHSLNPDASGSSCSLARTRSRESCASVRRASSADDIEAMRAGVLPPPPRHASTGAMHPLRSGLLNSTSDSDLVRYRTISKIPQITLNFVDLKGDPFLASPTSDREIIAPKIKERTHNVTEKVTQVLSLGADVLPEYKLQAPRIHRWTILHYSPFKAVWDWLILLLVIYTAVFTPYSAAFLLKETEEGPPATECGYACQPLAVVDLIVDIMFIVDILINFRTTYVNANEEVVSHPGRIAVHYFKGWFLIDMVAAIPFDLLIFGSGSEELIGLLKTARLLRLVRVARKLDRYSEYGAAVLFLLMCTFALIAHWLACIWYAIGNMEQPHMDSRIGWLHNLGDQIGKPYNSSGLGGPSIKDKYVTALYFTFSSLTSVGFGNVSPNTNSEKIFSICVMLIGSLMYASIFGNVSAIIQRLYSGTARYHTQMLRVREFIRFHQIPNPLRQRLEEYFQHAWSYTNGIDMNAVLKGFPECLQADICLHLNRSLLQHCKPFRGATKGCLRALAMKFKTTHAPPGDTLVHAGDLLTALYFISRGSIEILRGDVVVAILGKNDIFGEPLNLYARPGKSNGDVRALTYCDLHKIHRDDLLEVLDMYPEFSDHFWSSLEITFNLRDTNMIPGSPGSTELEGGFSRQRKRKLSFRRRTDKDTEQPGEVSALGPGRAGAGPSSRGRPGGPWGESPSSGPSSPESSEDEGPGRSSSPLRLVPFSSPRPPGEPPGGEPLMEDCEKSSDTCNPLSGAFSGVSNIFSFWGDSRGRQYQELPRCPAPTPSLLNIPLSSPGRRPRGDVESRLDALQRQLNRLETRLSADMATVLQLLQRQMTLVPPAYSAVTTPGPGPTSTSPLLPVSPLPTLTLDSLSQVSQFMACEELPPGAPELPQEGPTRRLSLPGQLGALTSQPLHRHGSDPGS

| Compound | hERG current change (%, negative = inhibition) at 1uM [%] |
| --- | --- |
| COc1cc2c(cc1/C=C/C(=O)O)OC(C)C2 (stereo not shown) | 1.07 |
| O=C(COC(=O)C12CC3CC(CC(C3)C1)C2)Nc1ccc2[nH]c(=O)[nH]c2c1 | 12.4 |
| COc1ccc(C2C(C(=O)N3CCCC3)c3cc(OC)c(OC)cc3C(=O)N2C)cc1 (stereo not shown) | 11.8 |
| Nc1ccccc1N1C(=O)c2cccc3cccc(c23)C1=O | 5 |
| O=C(CCS(=O)(=O)c1ccc(F)cc1)Nc1nc(-c2ccccn2)cs1 | 6.38 |
| CC(=O)N1CCN(Cc2nc3cc(NC(=O)c4ccccc4)ccc3n2C)CC1 | 15.1 |
| Cc1ccc(OCCOc2cccc(/C=N/NC(N)=O)c2)cc1 | 16 |
| COCCNC(=O)C1CC(=O)N(C2CCCCC2)C1 (stereo not shown) | 11.6 |
| COc1ccc(-n2c(-c3cc(-c4ccccc4)sc3N)n[nH]c2=S)cc1 | 12.7 |
| Cc1ccc(S(=O)(=O)/N=C2\SC(CC(=O)Nc3ccc(F)cc3)C(=O)N2c2ccccc2)cc1 (stereo not shown) | 12.6 |
| CCC(=O)OCC(=O)Nc1cc(C)c(C)cc1[N+](=O)[O-] | 8.26 |
| CCCOC(=O)Nc1ccc(S(=O)(=O)Nc2ncccn2)cc1 | 0.276 |
| Cc1cccc(C(C)(C)C)c1OCCN1CCCC1 | 3.03 |
| COCCn1nnnc1C(c1ccc(OC)cc1OC)N1CCN(c2ccccc2F)CC1.Cl (stereo not shown) | -2.19 |
| CC1CC1C(=O)Nc1nc2ccc(S(C)(=O)=O)cc2s1 (stereo not shown) | 6.81 |
| COc1ccc(OC)c(N(CC(=O)N2CCC(C)CC2)S(=O)(=O)c2ccccc2)c1 | -12.6 |
| CC[C@@H](C)[C@@H](C(=O)N1CCNCC1)n1cc(CCC(=O)O)nn1.Cl | 2.7 |
| COc1ccccc1NC(=O)CCS(=O)(=O)c1cc2c(cc1Cl)NC(=O)CO2 | 12.7 |
| CCc1nnc(NC(=O)c2cc(S(=O)(=O)N3CCN(c4ccccc4)CC3)ccc2Cl)s1 | 8.28 |
| COc1ccc(CCC(=O)N2CCN(c3cccc(C)c3C)CC2)cc1 | 9.53 |
| Cc1ccc(C(=O)Nc2ccc3c(c2)OCO3)o1 | 10.2 |
| O=S(=O)(NC1CCCCC1N1CCN(c2ccccc2F)CC1)c1ccc(Cl)cc1 (stereo not shown) | 3.96 |

| Compound | hERG current change (%, negative = inhibition) at 1uM [%] |
| --- | --- |
| Cc1ccc(C(=O)NC2CC(=O)N(c3ccc4c(c3)OCCO4)C2)cc1[N+](=O)[O-] (stereo not shown) | 17.4 |
| COc1ccc(N2CCN(C3CCCN(C(=O)CN4CCOC4=O)C3)CC2)cc1 (stereo not shown) | 5.58 |
| CCN(CC)CCCn1c(=S)[nH]c2ccc(Cl)cc2c1=O | -25.5 |
| CC(O)CNCCCOc1cccc(C(F)(F)F)c1.O=C(O)C(=O)O (stereo not shown) | 5.23 |
| CC(C)CC(=O)N1CCN(S(=O)(=O)c2ccccc2)CC1 | 8.07 |
| O=C(NC1CCCCC1)c1nn2c(C(F)(F)F)cc(-c3ccco3)nc2c1Br | 13.8 |
| CCOC(=O)C1(C)NC(c2ccco2)C2C(=O)N(C)C(=O)C21 (stereo not shown) | 10.1 |
| Cn1cc(S(=O)(=O)N2CCCC2)cc1C(=O)N1CCN(c2cccc(Cl)c2)CC1 | 2.79 |
| FC(F)(F)c1nc(NCc2cccnc2)c2ccccc2n1 | 18.9 |
| CNC(=O)CS(=O)(=O)CC(=O)Nc1cc(OCCOC)c(Cl)cc1Cl | 11.1 |
| O=C(CC(=O)Nc1ccccc1C(=O)O)NNC(=O)Cc1ccccc1 | -2.4 |
| Cc1cc(Nc2ccccc2)nn1C(=O)c1ccc(Br)cc1 | 9.81 |
| Cc1cc(S(=O)(=O)Nc2ccc(F)cc2)c(C)s1 | 8.79 |
| COc1cccc(N=C(N)N)c1.Cl | 7.54 |
| COc1ccc(CN(C(=O)CN2C(=O)c3ccccc3S2(=O)=O)C(C(=O)NCC2CCCO2)c2ccco2)cc1 (stereo not shown) | -2.31 |
| Cc1nnsc1-c1c(C(=O)N2CCOCC2)c(C)nn1-c1ccc(Cl)cc1 | 8.85 |
| COc1cc(CNC(C)(C)C)ccc1OCC(=O)NC(C)(C)C | 15 |
| Cc1ccccc1C(=O)NC1CC2CCCC(C1)N2Cc1ccc(Cl)cc1 (stereo not shown) | -44.9 |
| CC(=O)c1c(C)nn(CC(O)COc2ccc3ccccc3c2)c1C (stereo not shown) | 7.91 |
| O=C(O)CC(NC(=O)C12CC3CC(CC(C3)C1)C2)c1cc([N+](=O)[O-])ccc1Cl (stereo not shown) | 2.33 |
| N#Cc1ccc(Cn2cc(C(=O)c3ccco3)c3ccccc32)cc1 | -12.8 |
